Experimental data taken from publication PMC6919601, “Identification of Plasmodium dipeptidyl aminopeptidase allosteric inhibitors by high throughput screening” (PLoS ONE, 2019).
Where “and” joins values, the source holds several entries; their conditions need not be identical. Equal values may be shown once. Among all 110,000 compounds or so, about 230 (0.21%) showed an effect of 50% or more. The list shows a part of the results.

Biological target: DPAP1 (Plasmodium falciparum, UniProt Q8IIJ9)
Sequence (Q8IIJ9 whole entry, looked up): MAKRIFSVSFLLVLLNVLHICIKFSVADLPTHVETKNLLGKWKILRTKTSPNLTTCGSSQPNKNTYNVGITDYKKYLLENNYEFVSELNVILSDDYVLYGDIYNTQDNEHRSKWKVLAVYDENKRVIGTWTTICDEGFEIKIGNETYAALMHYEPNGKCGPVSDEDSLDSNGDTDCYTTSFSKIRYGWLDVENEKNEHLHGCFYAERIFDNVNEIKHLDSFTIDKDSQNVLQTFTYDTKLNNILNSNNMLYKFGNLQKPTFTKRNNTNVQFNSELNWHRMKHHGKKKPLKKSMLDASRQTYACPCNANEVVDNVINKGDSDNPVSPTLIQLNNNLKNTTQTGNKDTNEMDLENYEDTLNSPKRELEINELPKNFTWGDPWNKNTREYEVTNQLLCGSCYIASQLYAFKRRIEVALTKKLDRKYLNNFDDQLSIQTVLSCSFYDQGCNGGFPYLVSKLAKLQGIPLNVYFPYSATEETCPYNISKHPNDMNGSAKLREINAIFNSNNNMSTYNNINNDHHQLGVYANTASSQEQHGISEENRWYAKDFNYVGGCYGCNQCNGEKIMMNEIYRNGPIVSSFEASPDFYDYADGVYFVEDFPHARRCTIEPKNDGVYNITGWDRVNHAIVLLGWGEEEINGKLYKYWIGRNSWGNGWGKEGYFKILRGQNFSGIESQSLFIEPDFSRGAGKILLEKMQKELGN
Test: primary screen, percent inhibition; read by cleavage of a fluorogenic dipeptide substrate; higher = more effect of the substance
Set-up: species or system P. falciparum D10 trophozoite lysates; single well
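Further: 30 min substrate incubation versus DMSO and 10 µM JCP410 controls.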

Compound	% Inhibition @ 10 uM
O=C(CCc1nnc2n(Cc3ccccc3)c(=O)c3ccccc3n12)NCc1ccccc1Cl	-4.21%
Cc1ccc(C)n1-c1nnc(N2CCC(C(=O)NCCc3cccs3)CC2)s1	1.15%
Cc1nc2c(C(=O)NC3CCCC(C)C3C)cnn2c(C)c1Cc1ccccc1Cl (stereo not shown)	1.27%
Cc1nc2ncnn2c(C)c1CCC(=O)NCCc1ccccc1	-8.02%
O=C(Cc1c(C(=O)O)[nH]c2ccc(Cl)cc12)NCc1ccc2c(c1)OCO2	1.86%
COc1ccccc1/C=C1\SC(=O)N(Cc2ccc(F)cc2)C1=O	3.17%
O=C(O)/C(=C/c1c[nH]c2ccccc12)NC(=O)c1ccccc1	0.147%
O=S(=O)(c1cccc(Cl)c1)c1nnn2c1nc(NC1CCCCC1)c1sccc12	-5.57%
COc1cccc(CS(=O)(=O)C2C(C)CC(C)(C)CC2O)c1 (stereo not shown)	-1.98%
O=C(COc1ccc(Cl)cc1Cl)Nc1ccc(Cl)c(Cl)c1	-0.253%
COc1ccc(-c2nc(CS(=O)CC(=O)O)c(C)o2)cc1 (stereo not shown)	1.42%
CC(Nc1nc(Nc2cccc(C(F)(F)F)c2)nc(N2CCOCC2)n1)c1ccccc1 (stereo not shown)	3.05%
Cc1ccc(CNC(=O)NCc2cccn2Cc2ccccc2)cc1	-2.23%
CCSCCOC(=O)C1=C(C)NC(=O)CC1c1ccccc1C (stereo not shown)	-2.87%
CCOC(=O)c1sc2nc(SCC(=O)NCc3ccco3)n(Cc3ccccc3)c(=O)c2c1C	-2.56%
Cn1c2ccccc2c2nnc(SCc3ccccc3)nc21	-3.64%
CCOC(=O)N1CCC(NC(=O)Cc2cn(C)c3ccccc23)CC1	-2.41%
COc1ccc(N2C(=O)CC(N3CCN(c4cccc(C(F)(F)F)c4)CC3)C2=O)cc1 (stereo not shown)	4.74%
c1ccc(-c2cc3ccccc3[nH]2)cc1	-5.01%
O=C(CCCOc1ccc(Cl)cc1)NCCc1nc2ccccc2[nH]1	0.487%
COc1ccc(C=C2C(=O)c3ccccc3C2=O)cc1OC	-2.51%
Cc1cc(C)cc(NC(=O)c2cccs2)c1	-3.26%
COc1ccc(NC(=O)Cn2cnc3c2c(=O)n(C)c(=O)n3C)cc1OC	-5.27%
O=C(O)Cn1nnc(-c2ccccc2F)n1	-7.18%
COC(=O)C1=C(C)N(C)C(=O)NC1c1ccc(Cl)c(Cl)c1 (stereo not shown)	1.27%

Compound	% Inhibition @ 10 uM
CC1(C)CC(=O)C2=C(C1)N(c1nc[nH]n1)C(N)=C(C#N)C2c1ccc(Br)cc1 (stereo not shown)	-2.77%
COCCN1C(=O)C(O)=C(C(=O)c2ccccc2)C1c1ccc(Cl)cc1 (stereo not shown)	2.65%
CSc1nc(Oc2ccc(C)c(C)c2)cc(-n2cncn2)n1	-5.13%
CC1CCN(c2ccc3nnc(CCC(=O)NCC(C)c4ccccc4)n3n2)CC1 (stereo not shown)	-5.85%
CC(C)N1CCc2nc3sc(C(N)=O)c(N)c3cc2C1	2.34%
CCc1ccccc1NC(=O)CN(c1cccc(OC)c1)S(C)(=O)=O	2.36% and -3.71%
Cc1ccc(/C=C2\C(=N)N3N=C(N4CCCC4)SC3=NC2=O)o1	-1.66%
Nc1cccc2c1C(=O)c1c(N)cccc1C2=O	-2.42%
CCOc1ncnc2sc3c(c12)CCC(C)C3 (stereo not shown)	0.138%
COc1ccc(NC(=O)c2ccccc2N)c(OC)c1	3.24%
Cc1ccc2c(CNCCC3=CCCCC3)c(C(=O)O)[nH]c2c1	-0.397%
Cc1ccc(C(C)C)c(OCC(O)CN2CCC(C)CC2)c1 (stereo not shown)	2.86%
CCOC(=O)c1cnc2c(OC)cccc2c1N1CCC(C)CC1	1.08%
O=c1c2ccccc2nc(C(Cl)(Cl)Cl)n1Cc1ccccc1	-3.37%
COc1ccc(C)cc1NC(=O)Cn1nc(C(F)(F)F)cc1C1CC1	2.08%
CC(=O)c1cc2c(cc1NC(=O)c1ccc(C(C)(C)C)cc1)OCO2	-0.318%
CC1CCN(S(=O)(=O)c2ccc3ncc(C(=O)NCCCN4CCOCC4)c(O)c3c2)CC1	-8.86%
CSc1nc(-c2ccccc2)nc(NC(=O)C(C)C)c1C(C)=O	-7.09%
C=CCN1C(=O)c2ccccc2C1(O)c1ccc(C)cc1 (stereo not shown)	-4.21%
COc1ccc(C2(CC(=O)O)CCOC(C)(C)C2)cc1 (stereo not shown)	0.0265%
O=C(Nc1ncc(Cc2ccccc2)s1)C(c1ccccc1)c1ccccc1	-0.424%
CCn1c(C(=O)O)c(CNCc2ccc(Cl)cc2)c2ccccc21	-5.05%
O=C(c1ccccc1F)N1CCN(c2cccc(Cl)c2)CC1	-7.02%
Cc1ccc(C(=O)Nc2cc(Cl)cc(Cl)c2)cc1	-0.856%
CN(C)CCNC(=O)Cn1cnc2onc(-c3ccc(F)cc3)c2c1=O	-4.94%

Compound	% Inhibition @ 10 uM
Cc1ccc(-c2cc(C(=O)N3CCN(Cc4ccc(F)cc4)CC3)[nH]n2)cc1	-1.3%
O=C(O)/C=C/C(=O)Nc1ccccc1-c1ccccc1NC(=O)/C=C/C(=O)O	-0.999%
CC1CN(c2ccc([N+](=O)[O-])c(N)c2)CCN1 (stereo not shown)	-1.74%
Cc1nc2nc(-c3ccc(F)cc3)cn2nc1C	-3.04%
CCS(=O)(=O)N1CCCC(C(=O)NCCCN(C)Cc2ccccc2)C1 (stereo not shown)	1.62%
Cc1ccc(S(=O)(=O)N2CCC(C(=O)N3CCC(C(=O)NC(C)c4ccccc4)CC3)CC2)cc1 (stereo not shown)	5.23%
CCOc1ccc(/C=C/c2nc(C#N)c(NCCc3ccc(OC)c(OC)c3)o2)cc1	0.895%
CC1CCCN(C(=O)C2CCN(S(=O)(=O)c3cccc4nsnc34)CC2)C1 (stereo not shown)	-7.16%
N#Cc1c(SCC(N)=O)nc2c(c1-c1ccco1)CC/C2=C\c1ccco1	20.2%
Cc1cc(C)c(S(=O)(=O)Nc2cnc3ccccc3c2)c(C)c1	0.266%
Cc1ccnc(NS(=O)(=O)c2ccc(NC(=O)c3ccccc3Br)cc2)n1	0.812%
COc1ccc(C2C(C#N)=C(N)Oc3ccc4ccccc4c32)cc1OC (stereo not shown)	4.08%
CCOC(=O)N1CCN(C(=O)CN(c2ccc(C(C)C)cc2)S(=O)(=O)c2ccccc2)CC1	0.361%
Cc1ccc(S(=O)(=O)N(CC(=O)Nc2ccc(S(N)(=O)=O)cc2)Cc2ccccc2F)cc1	0.367%
COc1ccccc1/C=C/C(=O)c1ccco1	6.04%
COc1ccc(C2OC3(C(=O)c4ccccc4C3=O)C3C(=O)N(c4ccccc4F)C(=O)C23)cc1 (stereo not shown)	5.39%
CC(C)OCCCn1c(=O)c2ccccc2n2c(-c3cccs3)nnc12	-1.72%
COc1cc(NC(=O)CSc2ccccc2)c(C(=O)O)cc1OC	-3.39%
Cc1cc(O)nc(-c2ccccc2O)n1	-5.62% and 0.247%
CCCOc1ccc(Br)cc1C1=CSC2=NCCN12	-2.54%
Clc1ccc(C(Cc2ccccc2)NC2CN3CCC2CC3)cc1 (stereo not shown)	-2.99%
O=C(CNS(=O)(=O)c1ccc(Br)cc1)N1CCN(Cc2ccc3c(c2)OCO3)CC1	-7.28%
CCOc1ccc(C2=CC(c3ccccc3F)n3nnnc3N2)cc1Cl (stereo not shown)	-1.62%
Fc1cnc(N2CCOCC2)nc1N1CCN(c2ccccc2)CC1	2.22%
Cn1cc(NC(=O)Nc2cccnc2)c2ccccc2c1=O	4.68%

Compound	% Inhibition @ 10 uM
CCOC(=O)N1CCN(C(=O)C(NC(=O)C2CCC(C)CC2)C(C)C)CC1 (stereo not shown)	5.36%
O=C1CC(NCCC2=CCCCC2)C(=O)N1c1ccccc1 (stereo not shown)	6.1%
Cn1c(=O)c2c(ncn2CC(O)Cn2c(Cc3ccccc3)nc3ccccc32)n(C)c1=O (stereo not shown)	-2.98%
c1ccc(-c2nc(CN3CCc4ccccc4C3)cs2)cc1	-2.32%
COc1ccc(OCC(O)CN2CCCC2)cc1 (stereo not shown)	0.605%
CC1CCCC(C)N1C(=O)c1csc2c1CCCC2 (stereo not shown)	3.54%
C#CCn1c(COc2ccc(C)cc2)nc2ccccc21	-0.551%
O=C(NCCN1CCCC1)C1CCC(CNS(=O)(=O)c2ccc(Cl)cc2)CC1 (stereo not shown)	-2.72%
COC(=O)c1[nH]c2ccccc2c1Sc1ccccc1	-1.97%
O=C(Nc1ccccc1)OC1C2CCC1C(N1CCCCC1)CC2 (stereo not shown)	6.83%
COc1ccc2ccccc2c1C1CC(=O)N2CN(Cc3ccccc3)CSC2=C1C#N (stereo not shown)	35.8%
C/C(=C1/SC(N2CCOCC2)=NC1=O)c1ccc(C)cc1	-5.01%
CCc1ccc(/C=C2/NC(=O)N(Cc3ccccc3F)C2=O)cc1	-3.65%
Cc1ccc2nc(O)c3cc(C(=O)N4CCN(c5ccccn5)CC4)sc3c2c1	0.231%
Nc1nc(-c2ccccc2)cnc1C(=O)NCCO	-1.65%
O=C(NC1(C(F)(F)F)Oc2ccccc2O1)N1CCCC1	1.01%
CCOC(=O)c1ccc2nc(NC(=O)CSc3nnc(C)c(O)n3)sc2c1	-0.671%
O=C(O)Cc1ccc(-n2c(S)nnc2-c2ccc3ccccc3n2)cc1	-6.71%
COc1ccc2n[n+]([O-])c3ccc(OC)cc3c2c1	2.27%
O=C(NC1CCCC1)c1cnn2c(C(F)(F)F)cc(-c3cccs3)nc12	1.16%
O=C(NCc1ccccc1Cl)C1=CCN(S(=O)(=O)c2ccc(F)cc2)CC1	-4.69%
N#Cc1c(-c2ccccc2Cl)cc(C2CC2)nc1N	-5.49%
CCOC(=O)c1c(S(=O)(=O)NCCc2cccs2)c(C)n(C)c1C	0.275%
O=C(Nc1ccc(-c2noc(-c3ccccc3Br)n2)cc1)c1ccccn1	2.06%
N#CC1=C(N)Oc2oc3ccccc3c(=O)c2C1c1cc(F)ccc1Br (stereo not shown)	-6.62%
